{"source": "paper PMC4336329", "about": "(PLoS ONE, 2015)", "note": "Out of some 310,000 compounds screened, about 14,000 (4.5%) showed an effect of 50% or more. The effect is printed as a negative number. The list shows a part of the results.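 Further: peak tail current of the secondary pulse compared with the same well before compound.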"}
{"target": "human ether-à-go-go-related gene (hERG) potassium channel (human, UniProt Q12809)", "sequence (Q12809 whole entry, looked up)": "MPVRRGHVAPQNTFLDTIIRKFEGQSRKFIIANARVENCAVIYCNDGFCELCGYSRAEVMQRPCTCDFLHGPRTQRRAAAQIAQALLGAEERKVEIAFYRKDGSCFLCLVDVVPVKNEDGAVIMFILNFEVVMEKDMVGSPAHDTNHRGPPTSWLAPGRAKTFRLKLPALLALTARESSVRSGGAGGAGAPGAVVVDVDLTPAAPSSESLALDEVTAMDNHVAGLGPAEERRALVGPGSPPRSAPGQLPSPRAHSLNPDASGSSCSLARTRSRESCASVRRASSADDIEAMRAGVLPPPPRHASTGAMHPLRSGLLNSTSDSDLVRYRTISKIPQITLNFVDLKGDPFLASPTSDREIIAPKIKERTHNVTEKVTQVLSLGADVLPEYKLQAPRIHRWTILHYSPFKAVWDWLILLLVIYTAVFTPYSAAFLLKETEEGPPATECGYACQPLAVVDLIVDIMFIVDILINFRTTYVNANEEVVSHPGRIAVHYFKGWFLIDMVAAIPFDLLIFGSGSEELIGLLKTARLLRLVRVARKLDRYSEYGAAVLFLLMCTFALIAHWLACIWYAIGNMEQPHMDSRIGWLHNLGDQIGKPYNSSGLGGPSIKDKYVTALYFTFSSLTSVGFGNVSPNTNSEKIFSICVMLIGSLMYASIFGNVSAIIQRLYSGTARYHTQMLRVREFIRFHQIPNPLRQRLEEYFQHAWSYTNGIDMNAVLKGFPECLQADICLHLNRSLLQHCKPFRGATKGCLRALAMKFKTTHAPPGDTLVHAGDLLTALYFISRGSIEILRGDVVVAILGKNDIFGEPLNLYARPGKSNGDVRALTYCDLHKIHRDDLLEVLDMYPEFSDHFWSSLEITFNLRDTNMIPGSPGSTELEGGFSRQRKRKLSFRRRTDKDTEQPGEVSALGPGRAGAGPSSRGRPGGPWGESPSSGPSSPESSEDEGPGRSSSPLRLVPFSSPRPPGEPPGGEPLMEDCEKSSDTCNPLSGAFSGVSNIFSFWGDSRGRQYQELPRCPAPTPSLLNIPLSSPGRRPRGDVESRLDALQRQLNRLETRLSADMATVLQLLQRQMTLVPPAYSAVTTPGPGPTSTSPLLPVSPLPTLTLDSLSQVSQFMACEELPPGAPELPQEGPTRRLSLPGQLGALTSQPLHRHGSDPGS", "experiment": "primary screen, population patch clamp on CHO cells stably expressing hERG", "units": {"hERG current change (%, negative = inhibition) at 10uM": "%"}}
{"smiles": "O=C(CSc1nc(CCC2CCCC2)nc2ccccc12)NCc1ccc2c(c1)OCO2", "hERG current change (%, negative = inhibition) at 10uM": 15}
{"smiles": "CCOc1cc(CO)ccc1OCC(=O)N1CCCCC1", "hERG current change (%, negative = inhibition) at 10uM": 6.99}
{"smiles": "O=C(CCN1C(=O)/C(=C/c2ccc(Cl)cc2)SC1=S)Nc1cccnc1", "hERG current change (%, negative = inhibition) at 10uM": 16}
{"smiles": "CCCCOC(=O)c1ccc(N)cc1", "hERG current change (%, negative = inhibition) at 10uM": 3.2}
{"smiles": "CS(=O)(=O)c1ccc2nc(NC(=O)c3ccc(S(=O)(=O)NCC4CCCO4)cc3)sc2c1", "note": "(stereo not shown)", "hERG current change (%, negative = inhibition) at 10uM": 41.5}
{"smiles": "O=C(CSc1ccsc1[N+](=O)[O-])N1CCN(c2ccc(Cl)cc2)CC1", "hERG current change (%, negative = inhibition) at 10uM": 10}
{"smiles": "COc1ccc(S(=O)(=O)N(CC(=O)O)Cc2ccccc2)cc1OC", "hERG current change (%, negative = inhibition) at 10uM": 12}
{"smiles": "Cc1cc(C)n2c(SCC(=O)N3CCN(S(=O)(=O)c4ccc(Cl)cc4)CC3)nnc2n1", "hERG current change (%, negative = inhibition) at 10uM": 11.6}
{"smiles": "COc1cccc(C2C3CN(C)CC=C3C(C#N)=C(N)C2(C#N)C#N)c1OC", "note": "(stereo not shown)", "hERG current change (%, negative = inhibition) at 10uM": -14.2}
{"smiles": "Cc1ccc(NC(=O)CN(C)C(=O)COC(=O)c2ccc(Cl)cc2O)cc1", "hERG current change (%, negative = inhibition) at 10uM": 6.26}
{"smiles": "NC(=O)c1ccc(NC(=O)CCCc2nc(-c3ccccc3Cl)no2)cc1", "hERG current change (%, negative = inhibition) at 10uM": 18.4}
{"smiles": "COc1ccnc(N2CCN(c3ccc(Cl)cc3)CC2)c1C#N", "hERG current change (%, negative = inhibition) at 10uM": 16}
{"smiles": "Cc1ccoc1C(=O)N1CCCC(CCC(=O)N2CCN(c3ccccn3)CC2)C1", "note": "(stereo not shown)", "hERG current change (%, negative = inhibition) at 10uM": -15.2}
{"smiles": "COC(=O)c1ccc(C(=O)OC)c(NC(=O)COC(=O)CC2CC3CCC2C3)c1", "note": "(stereo not shown)", "hERG current change (%, negative = inhibition) at 10uM": -12.1}
{"smiles": "CCc1ccc(OCC(=O)N/N=C(\\C)c2ccc(O)cc2O)cc1", "hERG current change (%, negative = inhibition) at 10uM": 4.55}
{"smiles": "COc1ccc(Cl)cc1NC(=O)NCCN1CCCCC1", "hERG current change (%, negative = inhibition) at 10uM": -1.07}
{"smiles": "O=C(Nc1ccccc1)c1ccc(S(=O)(=O)NCc2ccco2)cc1", "hERG current change (%, negative = inhibition) at 10uM": -11.6}
{"smiles": "CC1=C(C)CC(C(=O)NNC(=O)c2ccccc2)C(C(=O)O)C1", "note": "(stereo not shown)", "hERG current change (%, negative = inhibition) at 10uM": 18}
{"smiles": "COc1cccc(C(C)N(C)Cc2nc(-c3ccoc3)oc2C)c1", "note": "(stereo not shown)", "hERG current change (%, negative = inhibition) at 10uM": -39.1}
{"smiles": "O=c1c2ccccc2nc(SCc2cc(F)cc3c2OCOC3)n1Cc1ccco1", "hERG current change (%, negative = inhibition) at 10uM": -2.26}
{"smiles": "COc1ccc(S(=O)Cc2ccc(C(=O)N3CCN(C(=O)c4ccco4)CC3)o2)cc1", "note": "(stereo not shown)", "hERG current change (%, negative = inhibition) at 10uM": 7.47}
{"smiles": "COCCNC(=O)CSc1nnc(-c2ccccc2)c(-c2ccccc2)n1", "hERG current change (%, negative = inhibition) at 10uM": -4.64}
{"smiles": "c1ccc2oc(-c3csc(N4CCOCC4)n3)cc2c1", "hERG current change (%, negative = inhibition) at 10uM": 22.6}
{"smiles": "COc1ccc(OC)c(S(=O)(=O)Nc2cccc(O)c2)c1", "hERG current change (%, negative = inhibition) at 10uM": 0.585}
{"smiles": "COc1ccc(C(=O)c2ncc(C(F)(F)F)cc2Cl)cc1", "hERG current change (%, negative = inhibition) at 10uM": 3.33}
{"smiles": "CCc1c(C)nc2c(-c3ccccc3)c(C)nn2c1Nc1ccc(NC(C)=O)cc1", "hERG current change (%, negative = inhibition) at 10uM": -2.44}
{"smiles": "Cc1ccc(C(C)NC(=O)c2cccs2)cc1", "note": "(stereo not shown)", "hERG current change (%, negative = inhibition) at 10uM": 3.58}
{"smiles": "NNc1nc(Nc2ccccc2)nc(N2CCCCC2)n1", "hERG current change (%, negative = inhibition) at 10uM": 5.95}
{"smiles": "C=CCN(CC(=O)NCc1ccc(OC)cc1)C(=O)c1csnn1", "hERG current change (%, negative = inhibition) at 10uM": -16.7}
{"smiles": "Cc1ccc(CC(=O)NCCCn2ccnc2)cc1", "hERG current change (%, negative = inhibition) at 10uM": 21.5}
{"smiles": "Cc1ccc(NC(=O)COC(=O)c2ccc(Cl)cc2)cc1S(=O)(=O)N(C)C", "hERG current change (%, negative = inhibition) at 10uM": -7.27}
{"smiles": "O=C(O)CC1c2ccccc2CCN1S(=O)(=O)c1ccc(F)cc1", "note": "(stereo not shown)", "hERG current change (%, negative = inhibition) at 10uM": 8.32}
{"smiles": "O=C(C1CC1)N1CCc2cc(S(=O)(=O)N(CCO)Cc3ccccc3)ccc21", "hERG current change (%, negative = inhibition) at 10uM": -10.4}
{"smiles": "CCn1c(SCC(=O)Nc2nc(-c3ccc(C)cc3)cs2)nnc1-c1ccccc1", "hERG current change (%, negative = inhibition) at 10uM": -1.44}
{"smiles": "CCOC(=O)C1CCCN(c2c(N3CCC(N4CCCCC4)CC3)c(=O)c2=O)C1", "note": "(stereo not shown)", "hERG current change (%, negative = inhibition) at 10uM": -0.665}
{"smiles": "COc1ccc(NC(=O)Nc2ccc(F)cc2)cn1", "hERG current change (%, negative = inhibition) at 10uM": 27.7}
{"smiles": "COc1ccc2[nH]c(C)c(C(=O)CN(C)CC3OCCO3)c2c1", "hERG current change (%, negative = inhibition) at 10uM": 5.17}
{"smiles": "CCN1CCN(C(=O)c2ccc(N3CC4CC(C3)c3cccc(=O)n3C4)c([N+](=O)[O-])c2)CC1", "note": "(stereo not shown)", "hERG current change (%, negative = inhibition) at 10uM": 40.6}
{"smiles": "CCCCCC(=O)NN1C(=S)N(c2ccc(OC)cc2)C(=O)C1CC(=O)Nc1ccccc1", "note": "(stereo not shown)", "hERG current change (%, negative = inhibition) at 10uM": -2.92}
{"smiles": "O=C(NC(Cc1ccccc1)C(=O)O)/C(=C\\c1ccco1)NC(=O)c1ccc(Br)cc1", "note": "(stereo not shown)", "hERG current change (%, negative = inhibition) at 10uM": -0.803}
{"smiles": "N#CCOc1ccc2oc(-c3ccco3)cc(=O)c2c1", "hERG current change (%, negative = inhibition) at 10uM": -9.42}
{"smiles": "CCOC(=O)C1(Cc2cccc(Cl)c2)CCCN(C(=O)c2cccnc2)C1", "note": "(stereo not shown)", "hERG current change (%, negative = inhibition) at 10uM": 5.62}
{"smiles": "Cc1cc2n(n1)C(c1ccc(O)cc1)Nc1ccccc1-2", "note": "(stereo not shown)", "hERG current change (%, negative = inhibition) at 10uM": -9.37}
